Results taken from patent US20240182561A1 (Regeneron, published 2024).

What was measured:
[1] = molecular target: T1, human CACNG1 expressed on cells (human, UniProt Q06432 1-222); experiment: cell-based or functional assay
[2] = molecular target: T1, human CACNG1 expressed on cells; experiment: cell-based or functional assay; remark: listed apart in the source
T1 sequence (Q06432 whole entry): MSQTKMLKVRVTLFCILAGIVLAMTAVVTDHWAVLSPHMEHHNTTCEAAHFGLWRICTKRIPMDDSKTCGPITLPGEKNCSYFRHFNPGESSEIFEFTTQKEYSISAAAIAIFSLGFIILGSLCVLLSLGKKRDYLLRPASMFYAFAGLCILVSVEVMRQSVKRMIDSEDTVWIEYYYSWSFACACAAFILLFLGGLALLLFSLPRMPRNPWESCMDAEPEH

B1: REGN14574-M3004 (antibody, human IgG1, kappa)
heavy chain: QVQLVESGGGVVQPGTSLRLSCAASGFTFSSYGMHWVRQAPGKGLEWVAVIWIDGSNKYYADSVKGRFTISRDNSKNTLYLQMNSLRAEDTAVYYCARRGGIVVAAPFDYWGQGTLVTVSS[human IgG1 constant region with changes omitted here]
light chain: [about 100 residues omitted here][about 120 residues omitted here]
modifications: N297Q; DHT linker-payload M3004 conjugated, DAR about 4
[1]
  EC50 of androgen receptor luciferase reporter activation (RLU) by the DHT conjugate REGN14574-M3004 in hCACNG1.AR.Luc LNCaP cells, 24 hours; concentration adjusted for DAR: 0.0127 µM
[2]
  EC50 of androgen receptor luciferase reporter activation (RLU) by the DHT conjugate REGN14574-M3004 in hCACNG1.AR.Luc LNCaP cells, 72 hours; concentration adjusted for DAR: 0.0132 µM
